Measured values from publication PMC7618510, “The accessory protein MRAP2 directly interacts with melanocortin-3 receptor to enhance signaling” (Science signaling, 2025).

Molecular target: T1, HA-Halo-MRAP2 (human, UniProt Q96G30 1-205, CA-Sulfo646 dye on the Halo tag)
T1 construct: melanocortin-2 receptor accessory protein 2 (MRAP2), human; S14 and the UBIRA repository; also called ss-HA-Halo-MRAP2; source: HEK293 (AD-293), transiently transfected, in lysate (LMNG-CHS); not shown: HA, N-terminal, kept; Halo, N-terminal, kept
T1 sequence (looked up): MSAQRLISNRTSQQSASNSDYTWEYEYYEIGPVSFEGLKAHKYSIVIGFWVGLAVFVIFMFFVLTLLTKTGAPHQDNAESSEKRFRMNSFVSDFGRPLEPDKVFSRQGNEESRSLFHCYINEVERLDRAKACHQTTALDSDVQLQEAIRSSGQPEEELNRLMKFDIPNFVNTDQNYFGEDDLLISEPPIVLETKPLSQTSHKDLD
Test: single-molecule pull-down (SiMPull) with photobleaching step counting; two colours: lysate of HEK293 cells cotransfected with 300 ng HA-Halo-tagged and 600 ng FLAG-CLIP-tagged plasmid, labelled at the surface with CA-Sulfo646 and BC-DY547, lysed in 0.5% LMNG/0.05% CHS; HA-tagged protein immobilised on HA antibody; co-localised spots and bleaching steps counted by TIRF
Settings: partners not purified

- stoichiometry N: 1 MRAP2 per MC3R
B1: FLAG-CLIP-MC3R (receptor, human, UniProt P41968 1-323, looked up)
chain: MNASCCLPSVQPTLPNGSEHLQAPFFSNQSSSAFCEQVFIKPEVFLSLGIVSLLENILVILAVVRNGNLHSPMYFFLCSLAVADMLVSVSNALETIMIAIVHSDYLTFEDQFIQHMDNIFDSMICISLVASICNLLAIAVDRYVTIFYALRYHSIMTVRKALTLIVAIWVCCGVCGVVFIVYSESKMVIVCLITMFFAMMLLMGTLYVHMFLFARLHVKRIAALPPADGVAPQQHSCMKGAVTITILLGVFIFCWAPFFLHLVLIITCPTNPYCICYTAHFNTYLVLIMCNSVIDPLIYAFRSLELRNTFREILCGCNGMNLG
modifications: BC-DY547 (CLIP-surface 547) dye on the CLIP tag
notes: melanocortin-3 receptor (MC3R), human; S14 and the UBIRA repository; also called ss-FLAG-CLIP-MC3R; source: HEK293 (AD-293), transiently transfected, in lysate (LMNG-CHS); not shown: FLAG, N-terminal, kept; CLIP, N-terminal, kept
